Numbering of substitutions follows the chain as printed. No constants are given. Whether binding was seen depends on the method and setting. For some assays here: Binding seen in cells or lysates may run through a third protein. Some binding calls cover weakened binding; strength is not graded here. Tags and fused reporters may be left off the sequences shown. One block for each substance: values may come before it.
Columns and labels:
[1] = target: T1, HA-Wss1 WLM* (expressed in yeast) (S. cerevisiae) (UniProt P38838); experiment: co-IP; HA-Wss1 constructs expressed from pYEPGAP-URA3 in yeast; lysates (150 mM NaCl, 50 mM Tris pH 7.4, 0.5% Triton X-100, 30 mM NEM) on anti-HA beads, 1 hr at 4°C; western blot; DOA1-FLAG cells (Figure 5B) or wss1Δ cells treated with 0.2 μg/ml 4-NQO (Figure 8C)
T1 sequence: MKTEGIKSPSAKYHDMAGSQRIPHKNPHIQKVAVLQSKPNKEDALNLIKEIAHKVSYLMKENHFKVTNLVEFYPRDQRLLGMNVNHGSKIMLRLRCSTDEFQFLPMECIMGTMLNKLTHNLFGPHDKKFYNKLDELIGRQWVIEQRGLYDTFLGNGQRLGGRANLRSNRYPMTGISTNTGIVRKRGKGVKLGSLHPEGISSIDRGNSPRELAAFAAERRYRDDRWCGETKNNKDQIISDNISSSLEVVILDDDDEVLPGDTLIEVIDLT

By UniProt entry, the sequences of proteins in these tests, tags left out.
UniProt P25694: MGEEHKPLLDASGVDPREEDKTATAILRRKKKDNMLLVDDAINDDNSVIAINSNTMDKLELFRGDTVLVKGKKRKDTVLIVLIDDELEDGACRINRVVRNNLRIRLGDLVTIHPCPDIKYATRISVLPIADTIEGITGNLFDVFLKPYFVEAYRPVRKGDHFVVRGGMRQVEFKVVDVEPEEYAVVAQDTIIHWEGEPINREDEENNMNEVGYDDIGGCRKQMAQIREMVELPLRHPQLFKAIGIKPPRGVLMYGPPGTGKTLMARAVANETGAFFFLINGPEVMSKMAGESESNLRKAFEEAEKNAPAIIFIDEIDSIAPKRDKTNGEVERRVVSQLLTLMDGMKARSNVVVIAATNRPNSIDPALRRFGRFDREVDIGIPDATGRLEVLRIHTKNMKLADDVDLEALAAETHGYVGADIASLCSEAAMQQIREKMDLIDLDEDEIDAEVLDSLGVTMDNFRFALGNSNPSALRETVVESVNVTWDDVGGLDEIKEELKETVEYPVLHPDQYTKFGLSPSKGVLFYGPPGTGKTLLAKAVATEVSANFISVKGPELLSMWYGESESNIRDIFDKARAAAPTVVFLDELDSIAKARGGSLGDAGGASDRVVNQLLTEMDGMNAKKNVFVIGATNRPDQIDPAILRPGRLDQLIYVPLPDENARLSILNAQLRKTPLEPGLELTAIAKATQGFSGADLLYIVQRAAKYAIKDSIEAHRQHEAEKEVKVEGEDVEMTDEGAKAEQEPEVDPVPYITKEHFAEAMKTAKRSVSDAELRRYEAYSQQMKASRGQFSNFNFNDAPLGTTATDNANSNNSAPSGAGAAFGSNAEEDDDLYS

[2] = target: T2, HA-Wss1 F2R (expressed in yeast) (S. cerevisiae) (UniProt P38838); experiment: as above
T2 sequence: T1 sequence with N115H, K116E, F152S, R218S, R219S

[3] = target: T3, HA-Wss1 (wild type, expressed in yeast) (S. cerevisiae) (UniProt P38838); experiment: as above
T3 sequence: T1 sequence with N115H, K116E

[4] = target: T4, MBP-Wss1 (wild type) (S. cerevisiae) (UniProt P38838); experiment: pull-down; CNBr-crosslinked MBP-Wss1 beads with lysates of CDC48-TAP cells transformed with Wss1 constructs; western blot; only the target purified
T4 sequence: T1 sequence with N115H, K116E

[5] = target: T5, MBP-Wss1 F2R (F152S, R218,219S) (S. cerevisiae) (UniProt P38838); experiment: pull-down; purified MBP-Wss1 proteins on amylose beads with purified Cdc48 or adaptor proteins; PAGE with Coomassie staining, western blot with α-His6, ImageJ; both purified
T5 sequence: T1 sequence with N115H, K116E, F152S, R218S, R219S

binding [1]: binds
binding [2]: no binding
binding [3]: binds
Substance: Cdc48 (endogenous) (from UniProt P25694 1-835) (enzyme)

binding [4]: binds
Substance: Cdc48-TAP (from UniProt P25694 1-835) (enzyme)

binding [5]: no binding
Substance: GST-Cdc48 (full length) (from UniProt P25694 1-835) (enzyme)

Source: publication PMC4559962
